The whole screen tested about 2,100 compounds, of which about 320 (15%) were called active. Inconclusive results, whose numbers are uncertain, are shown with a selection of clear calls. Calls come from the whole dose curve; as a rule, active = well fitted cell-killing curve with a large enough effect; inconclusive = small, poorly fitted or top-dose-only effect, or effect the other way; inactive = flat fitted curve, though single readings scatter. Where the call is inconclusive, the potency comes from a doubtful curve fit.
assay: Viability Counterscreen for CMV-Luciferase Assay of Inhibitors of ATXN expression; conditions: HEK-293 CMV-luciferase cells viability, protease fluorescence, 24 h; note: nearly all actives have a fitted effect of over 55% in size
Procedure, shortened: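 Compounds are tested in a dilution series on HEK-293 cells carrying the CMV-driven luciferase. After a 24 hr incubation, a protease substrate (25 uM final, 30 min) gives the viability fluorescence, and SteadyGlo gives the reporter luminescence.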
Potency is the fitted concentration of half-maximal effect; tags give direction and shape of the fitted curve.

Structure (SMILES) | Potency
CN1CCN(c2nc(Nc3ccc(F)cc3)nc(Nc3ccc(F)cc3)n2)CC1 | inactive
Cc1ccc(Cn2ncc3c(NN)ncnc32)cc1 | inconclusive: 20 µM [cytotoxic, single point]
CC(Oc1ccc(F)cc1)C(=O)Nc1nc(-c2ccccn2)cs1 (stereo not given) | active: 7.94 µM
COCC(C)n1c(C)cc(C(=O)COC(=O)c2cccn2C)c1C (stereo not given) | inactive
COc1ccccc1N1CCN(c2ccnc3cc(Cl)ccc23)CC1 | inconclusive: 3.55 µM [cytotoxic, full curve, poor fit]
Cc1onc(-c2c(Cl)cccc2Cl)c1C(=O)N/N=C(\N)COc1ccc(Cl)cc1 | inconclusive: 5.62 µM [cytotoxic, full curve]
COc1cccc(OC)c1C(=O)OCC(=O)NC(=O)NCc1ccccc1 | inactive
O=C1C(Cl)=C(NCCc2ccccc2)C(=O)c2ccccc21 | inconclusive: 28.2 µM [rising, partial curve]
Cc1cc(C)c2nc(NNC(=O)c3ccc(S(=O)(=O)N4CCCCC4)cc3)sc2c1 | inconclusive: 5.01 µM [cytotoxic, full curve, poor fit]
Cc1ccccc1N1CCN(Cc2c[nH]c3ccccc23)CC1 | inactive
Cc1cc(C(=O)N/N=C/c2c(CO)cnc(C)c2O)c2ccccc2n1 | inconclusive: 17.8 µM [cytotoxic, partial curve, poor fit]
Cc1cccc(Cn2c(CN3CCN(Cc4ccccc4)CC3)nc3c2c(=O)[nH]c(=O)n3C)c1 | inconclusive: 31.6 µM [cytotoxic, single point]
c1ccc(COc2ncnc3c2ncn3CCCN2CCN(Cc3cccc4ccccc34)CC2)cc1 | active: 25.1 µM
Oc1ccc(Cc2ccccc2)c2cccnc12 | inconclusive: 39.8 µM [rising, single point]
COc1cccc(CN(C)C(=O)c2ccc(OCC(=O)Nc3cccc(C(F)(F)F)c3)c(OC)c2)c1 | active: 17.8 µM
C/C(=N\NC(=O)COc1cccc(C)c1)c1ccc2ccccc2c1O | inactive
CCCC(=O)NC(c1ccco1)c1cc(Cl)c2cccnc2c1O (stereo not given) | inactive
COc1ccc2nc(NC(=O)C3CCN(S(=O)(=O)c4cccs4)CC3)sc2c1 | inactive
O=C(N/N=C/c1ccc(O)cc1O)/C(=C/c1ccccc1)CCO | inactive
Cn1nnnc1Sc1ncnc2scc(-c3ccccc3Cl)c12 | inconclusive: 3.16 µM [cytotoxic, single point]
O=C(c1ccc(Cn2c(=S)[nH]c3ccccc3c2=O)cc1)N1CCN(c2ccccn2)CC1 | inactive
O=C(/C=C\c1ccccc1)NCC(=O)N/N=C/c1ccc(O)cc1O | active: 10 µM
CCN(CC)c1ccc(/C=C/c2cccc[n+]2C)c(OC)c1 | active: 14.1 µM
O=C(CN1C(=O)C2CCCCC2C1=O)Nc1nc(-c2ccccn2)cs1 (stereo not given) | active: 17.8 µM

Structure (SMILES) | Potency
Cc1cccn2c(=O)c3cc(C(=O)NCCc4ccccc4)c(=N)n(CCCn4ccnc4)c3nc12 | inconclusive: 35.5 µM [rising, partial curve]
Cc1ccnc(N2C(=O)c3cccc4c([N+](=O)[O-])ccc(c34)C2=O)c1 | inconclusive: 28.2 µM [rising, partial curve]
CCCS(=O)(=O)c1c(S(=O)(=O)CCC)c2c(C)cccn2c1C(=O)N/N=C/c1cc(O)cc(O)c1 | inconclusive: 2.82 µM [cytotoxic, full curve, poor fit]
C=CCc1cccc(/C=N/NC(=O)C(C)Nc2ccc(C)cc2)c1O (stereo not given) | inconclusive: 10 µM [cytotoxic, partial curve, poor fit]
C(=N\Nc1nc2ccccc2[nH]1)/c1cccc2nccnc12 | inconclusive: 0.631 µM [cytotoxic, full curve, poor fit]
CC(C)C[C@H](N)c1cn([C@@H](CCCCN)C(=O)N2CCNCC2)nn1 | inactive
CCN(CC)CCn1nc2c3c(cccc3c1=O)-c1ccccc1-2 | active: 11.2 µM
COC1CC(C)C(OC)c2cc(O)cc(c2O)NC(=O)C(C)=CC=CC(C)C(OC(N)=O)C(C)=CC(C)C1OC (stereo not given) | inconclusive: 11.2 µM [cytotoxic, partial curve]
CCOc1cc(C=C(C(=O)OC)C(=O)OC)ccc1OCc1ccc([N+](=O)[O-])cc1 | inconclusive: 17.8 µM [cytotoxic, partial curve, poor fit]
COc1ccc(-n2c(-c3ccc(Cl)cc3)c[n+]3c2CCCCC3)cc1 | inconclusive: 12.6 µM [cytotoxic, partial curve, poor fit]
O=C1C=Cc2cccc3ccc(O)c1c23 | inactive
COc1ccc2sc(-c3ccc(SC)cc3)c(-c3ccc(O)cc3)c2c1 | inconclusive: 28.2 µM [cytotoxic, single point]
O=C(CN1CCOCC1)N/N=C/c1c(O)ccc2ccccc12 | inconclusive: 8.91 µM [cytotoxic, partial curve, poor fit]
c1ccc(CNc2nc(-c3ccccn3)nc3ccccc23)cc1 | active: 7.94 µM
CCOc1ccc(/C=C/[N+](=O)[O-])c2ccccc12 | active: 20 µM
CN(C)CCCN(C(=O)c1ccc(S(=O)(=O)N2CCCCCC2)cc1)c1nc2ccc(Br)cc2s1 | inactive
O=C(Nc1ccc(F)cc1)Nc1cc(OCC(F)(F)F)cc(OCC(F)(F)F)c1 | inconclusive: 8.91 µM [cytotoxic, partial curve, poor fit]
CCC(=O)NC(c1cc(Cl)c2cccnc2c1O)C(C)C (stereo not given) | inconclusive: 4.47 µM [cytotoxic, partial curve, poor fit]
CCN(CC)c1ccc(/C=N/NC(=O)CNC(=O)C2COc3ccccc3O2)c(O)c1 (stereo not given) | inconclusive: 1.12 µM [cytotoxic, partial curve]
COc1cccc(/C=N/NC(=O)CNC(=O)C2COc3ccccc3O2)c1O (stereo not given) | inconclusive: 3.98 µM [cytotoxic, full curve, poor fit]
Nc1cccc2c1C(=O)N(C(=O)/C=C/c1cccc(Br)c1)C2=O | inconclusive: 35.5 µM [rising, partial curve]
CN1C2CCC1/C(=C\c1ccccc1)C(=O)/C2=C\c1ccccc1 | active: 10 µM
COc1ccc(N(CC(=O)N2CCN(c3ccc(Cl)cc3)CC2)S(=O)(=O)c2c(C)n[nH]c2C)cc1 | inactive
CC1(C(=O)NCc2ccccc2Br)CCN1C(=O)Cc1ccc(-c2ccccc2)cc1 (stereo not given) | inconclusive: 39.8 µM [cytotoxic, single point]

Structure (SMILES) | Potency
Cc1nc(Oc2ccc(S(=O)(=O)N3CCOCC3)cc2Cl)c2c3c(sc2n1)CCCC3 | inactive
COc1ccc(CN2CCCN(S(=O)(=O)c3ccc(Br)cc3)CC2)cc1 | inconclusive: 12.6 µM [rising, partial curve, poor fit]
CC(/C=C/c1ccc2c(c1)OCO2)=N\NC(=O)c1cccc([N+](=O)[O-])c1 | inconclusive: 7.94 µM [cytotoxic, partial curve]
NC(=S)N1OC[C@@H]2COc3ccc4ccccc4c3[C@@H]21 | inconclusive: 12.6 µM [cytotoxic, partial curve, poor fit]
O=C(CNC(=O)c1ccccc1Br)N/N=C/c1cc(Br)ccc1O | inactive
CCN(CC)CCNc1ccnc2cc(Cl)ccc12 | inactive
Cc1ccc2c(c1)N(C)/C(=C/c1cccc[n+]1C)S2 | inconclusive: 6.31 µM [cytotoxic, single point]
Nc1ccc(Oc2ccccc2-c2ccccc2)cc1 | inactive
Cc1ccc2nc(NNC(=O)c3ccc(S(=O)(=O)N4CCc5ccccc5C4)cc3)sc2c1 | inconclusive: 3.55 µM [cytotoxic, full curve]
Cc1ccc(C(=O)NCCN2C3=NC[C@@H](Cc4ccccc4)N3C[C@H]2Cc2ccc(O)cc2)cc1Br | inconclusive: 3.16 µM [cytotoxic, single point]
O=C1/C(=C/c2ccc([N+](=O)[O-])cc2)C=C(c2ccccc2)N1c1ccc(O)cc1 | inconclusive: 5.01 µM [cytotoxic, single point]
CN(C)CCNC(=O)c1cccc(-c2cnc3c(NC=O)cc(-c4cccc(C(F)(F)F)c4)cn23)c1 | active: 22.4 µM
O=C(Nc1nccs1)c1cccc(N2C(=O)c3cccc4c([N+](=O)[O-])ccc(c34)C2=O)c1 | inconclusive: 28.2 µM [rising, partial curve]
O=C(Nc1cccc2c1CCCC2)c1cc([N+](=O)[O-])ccc1Cl | inconclusive: 12.6 µM [cytotoxic, partial curve]
Nc1nc(NCCCN2CCOCC2)nc(Nc2ccccc2F)c1[N+](=O)[O-] | inconclusive: 39.8 µM [rising, single point]
CCCC(=O)NC(c1ccc(C)cc1)c1ccc2cccnc2c1O (stereo not given) | inconclusive: 1.26 µM [cytotoxic, partial curve]
O=C(Nc1ccccc1NC(=O)NC1CCCCC1)NC1CCCCC1 | active: 20 µM
Clc1ccc(COC(Cn2ccnc2)c2ccc(Cl)cc2Cl)c(Cl)c1 (stereo not given) | inactive
CC(C)NC1CCC(Nc2ccnc3cc(Cl)ccc23)CC1 (stereo not given) | active: 15.8 µM
COc1ccc(N2CCN(c3nc(NCCc4ccc(OC)c(OC)c4)nc(OC)n3)CC2)cc1 | inconclusive: 25.1 µM [cytotoxic, single point]
O=C(NN=Cc1c(O)ccc2ccccc12)c1ccc2c(c1)OCO2 | inconclusive: 1.78 µM [cytotoxic, full curve, poor fit]
COc1cc(C=CC(=O)c2cc(OC)c(OC)c(OC)c2)cc(OC)c1OC | active: 10 µM
